From the supplement of paper PMC12217912 come the findings set out here.

This is one part of the list. Sequences were assembled here from the parent chain. Values near 0.05 are background.

The labels stand for the following.
B1: TEV protease; numbered along this chain (parent)
chain: MGESLFKGPRDYNPISSSICHLTNESDGHTTSLYGIGFGPFIITNKHLFRRNNGTLVVQSLHGVFKVKDTTTLQQHLVDGRDMIIIRMPKDFPPFPQKLKFREPQREERICLVTTNFQTKSMSSMVSDTSCTFPSGDGIFWKHWIQTKDGQCGSPLVSTRDGFIVGIHSASNFTNTNNYFTSVPKNFMELLTNQEAQQWVSGWRLNADSVLWGGHKVFMVKPEEPFQPVKEATQL
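Also: Bxb1 expression induced with 0.2% (w/v) L-rhamnose at OD600 near 0.5, cultures sampled hourly, flipped fraction per protease–substrate barcode pair counted by paired-end Illumina sequencing.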

In the experiment the parent is B1. As to the kind of experiment: raw area under fraction-flipped curve 0-4 h after induction (AUC4h, not background-subtracted), DNA-recorder readout of cleavage of the substrate (dimensionless); higher = more cleavage of the substrate by the protease variant. The conditions noted are these: temperature: 34 °C; time window: 0-4 h after rhamnose induction. The method, then: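 In vivo DNA recorder in E. coli TOP10(DE3) ΔrhaA at 34 °C. Each TEVp single-site mutant (parent TEVp 0) is paired with a single-site variant of the 7-mer TEVs (canonical ENLYFQ|S). The substrate sits between flexible linkers in a Bxb1-sfGFP-TEVs-SsrA fusion, so cleavage stabilises Bxb1 and speeds flipping of a recombination array, read by NGS. The value is the raw area under the fraction-flipped curve over 0-4 h after rhamnose induction (AUC4h), with ≥20 reads per time point. It is not background-subtracted; inactive controls average about 0.047.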
On to MGESLFKGPRDYNPISSSICHLTNESDGHTTSLYGIGFGPFIITNKHLFRRNNGTLVVQSLHGVFKVKDTTTLQQHLVDGRDMIIIRMPKDFPPFPQKLKFREPQREERICLVTTNFQTKSMSSMVSDTSCTFPSGDGIFWKHWIQTKDGQCGSPLVSTRDGFIVGIHSASNFTNTNNYFISVPKNFMELLTNQEAQQWVSGWRLNADSVLWGGHKVFMVKPEEPFQPVKEATQL [T181I], for which the “area with substrate ENLYFAS” value amounted to 0.0627, the “area with substrate ENLYFES” value came to 0.0485, the “area with substrate ENLYFFS” value amounted to 0.0626 and the “area with substrate ENLYFGS” value is 0.0935. Besides, the “area with substrate ENLYFNS” value is 0.0451, the “area with substrate ENLYFPS” value was determined as 0.0408 and the “area with substrate ENLYFTS” value worked out at 0.0462.
Consider MGESLFKGPRDYNPISSSICHLTNESDGHTTSLYGIGFGPFIITNKHLFRRNNGTLVVQSLHGVFKVKDTTTLQQHLVDGRDMIIIRMPKDFPPFPQKLKFREPQREERICLVTTNFQTKSMSSMVSDTSCTFPSGDGIFWKHWIQTKDGQCGSPLVSTRDGFIVGIHSASNFINTNNYFTSVPKNFMELLTNQEAQQWVSGWRLNADSVLWGGHKVFMVKPEEPFQPVKEATQL [T174I], for which the “area with substrate ENLYFAS” value was found to be 0.0537, the “area with substrate ENLYFES” value turned out to be 0.0579, the “area with substrate ENLYFGS” value was determined as 0.0643 and the “area with substrate ENLYFMS” value was found to be 0.0768. Moreover, the “area with substrate ENLYFPS” value turned out to be 0.0673.
Take MGESLFKGPRDYNPISSSICHLTNESDGHTTSLYGIGFGPFIITNKHLFRRNNGTLVVQSLHGVFKVKDTTTLQQHLVDGRDMIIIRMPKDFPPFPQKLKFREPQREERICLVTTNFQTKSMSSMVSDTSCTFPSGDGIFWKHWIQTKDGQCGSPLVSTRDGFIVGIHSASAFTNTNNYFTSVPKNFMELLTNQEAQQWVSGWRLNADSVLWGGHKVFMVKPEEPFQPVKEATQL [N172A]: the “area with substrate ENLYFAS” value came to 0.0486, the “area with substrate ENLYFFS” value was 0.0573, the “area with substrate ENLYFKS” value is 0.0584 and the “area with substrate ENLYFLS” value came out at 0.0496. Also, the “area with substrate ENLYFMS” value turned out to be 0.0506, the “area with substrate ENLYFNS” value amounted to 0.0639, the “area with substrate ENLYFPS” value stood at 0.0661 and the “area with substrate ENLYFSS” value amounted to 0.0654.
As to MGESLFKGPRDYNPISSSICHLTNESDGHTTSLYGIGFGPFIITNKHLFRRNNGTLVVQSLHGVFKVKDFTTLQQHLVDGRDMIIIRMPKDFPPFPQKLKFREPQREERICLVTTNFQTKSMSSMVSDTSCTFPSGDGIFWKHWIQTKDGQCGSPLVSTRDGFIVGIHSASNFTNTNNYFTSVPKNFMELLTNQEAQQWVSGWRLNADSVLWGGHKVFMVKPEEPFQPVKEATQL [T70F], the “area with substrate ENLYFAS” value turned out to be 0.0738, the “area with substrate ENLYFCS” value stood at 0.0402, the “area with substrate ENLYFDS” value came out at 0.0523 and the “area with substrate ENLYFIS” value was 0.051. Also, the “area with substrate ENLYFKS” value was found to be 0.0489, the “area with substrate ENLYFNS” value stood at 0.0573, the “area with substrate ENLYFPS” value turned out to be 0.0828 and the “area with substrate ENLYFSS” value was determined as 0.0366.
MGESLFKGPRDYNPISSSICHLTNESDGHTTSLYGIGFGPFIITNKHLFRRNNGTLVVQSLHGVFKVKDTTTLQQHLVDGRDMIIIRMPKDFPPFPQKLKFREPQREERICLVTTNFCTKSMSSMVSDTSCTFPSGDGIFWKHWIQTKDGQCGSPLVSTRDGFIVGIHSASNFTNTNNYFTSVPKNFMELLTNQEAQQWVSGWRLNADSVLWGGHKVFMVKPEEPFQPVKEATQL [Q118C]: the “area with substrate ENLYFAS” value worked out at 0.0684, the “area with substrate ENLYFIS” value was 0.0663, the “area with substrate ENLYFPS” value was found to be 0.0576 and the “area with substrate ENLYFYS” value came out at 0.0472.
Consider MGESLFKGPRDYNPISSSICHLTNESDGHTTSLYGIGFGPFIITNKHLFRRNNGTLVVQSLHGVFKVKDTTTLQQHLVDGRDMIIIRMPKDFPPFPQKLKFREPQREERICLVTTNFQTKSMSSMVSDTSCTFPSGDGIFWKHWIQTKDGQCGSPLVSTRDGFIVGIHSASNFTNTNNYFTSVPKTFMELLTNQEAQQWVSGWRLNADSVLWGGHKVFMVKPEEPFQPVKEATQL [N186T], for which the “area with substrate ENLYFAS” value came to 0.0616, the “area with substrate ENLYFCS” value is 0.0648, the “area with substrate ENLYFIS” value is 0.0528 and the “area with substrate ENLYFKS” value was 0.053. Further, the “area with substrate ENLYFMS” value was 0.0475, the “area with substrate ENLYFNS” value was found to be 0.0476 and the “area with substrate ENLYFSS” value was found to be 0.0429.
For MGESLFKGPRDYNPISSSICHLTNESDGHTTSLYGIGFGPFIITNKHLFRRNNGTLVVQSLHGVFKVKDTTTLQQHLVDGRDMIIIRMPKDFPPFPQKLKFREPQREERICLVTTNFQTKSMSSMVSDTSCTFPSGDGIFWKHWIQTKDGQCGSGLVSTRDGFIVGIHSASNFTNTNNYFTSVPKNFMELLTNQEAQQWVSGWRLNADSVLWGGHKVFMVKPEEPFQPVKEATQL [P155G], the “area with substrate ENLYFAS” value is 0.0584, the “area with substrate ENLYFCS” value came out at 0.0562, the “area with substrate ENLYFES” value was found to be 0.0747 and the “area with substrate ENLYFFS” value is 0.0573. Besides, the “area with substrate ENLYFGS” value came out at 0.0598, the “area with substrate ENLYFIS” value is 0.0449, the “area with substrate ENLYFMS” value was found to be 0.0445 and the “area with substrate ENLYFNS” value is 0.0673. The “area with substrate ENLYFPS” value amounted to 0.0533, the “area with substrate ENLYFSS” value is 0.051, the “area with substrate ENLYFTS” value is 0.0414 and the “area with substrate ENLYFWS” value worked out at 0.0535.
With MGESLFKGPRDYNPISSSICHLTNESDGHTTSLYGIGFGPFIITNKHLFRRNNGTLVVQSLHGVFKVKDTTTLQQHLVDGRDMIIIRMPKDFPPFPQKLKFREPQREERICLVTTNFQTKSMSSMVSDTSCTFPSGDYIFWKHWIQTKDGQCGSPLVSTRDGFIVGIHSASNFTNTNNYFTSVPKNFMELLTNQEAQQWVSGWRLNADSVLWGGHKVFMVKPEEPFQPVKEATQL [G138Y], the “area with substrate ENLYFAS” value turned out to be 0.0401, the “area with substrate ENLYFES” value stood at 0.0405, the “area with substrate ENLYFIS” value worked out at 0.0584 and the “area with substrate ENLYFMS” value is 0.0627. The “area with substrate ENLYFNS” value was 0.0632.
For the variant MGESLFHGPRDYNPISSSICHLTNESDGHTTSLYGIGFGPFIITNKHLFRRNNGTLVVQSLHGVFKVKDTTTLQQHLVDGRDMIIIRMPKDFPPFPQKLKFREPQREERICLVTTNFQTKSMSSMVSDTSCTFPSGDGIFWKHWIQTKDGQCGSPLVSTRDGFIVGIHSASNFTNTNNYFTSVPKNFMELLTNQEAQQWVSGWRLNADSVLWGGHKVFMVKPEEPFQPVKEATQL [K7H], the “area with substrate ENLYFAS” value came out at 0.0604, the “area with substrate ENLYFCS” value worked out at 0.0606, the “area with substrate ENLYFFS” value was determined as 0.0674 and the “area with substrate ENLYFGS” value was determined as 0.0593. Further, the “area with substrate ENLYFIS” value worked out at 0.0573, the “area with substrate ENLYFMS” value was 0.0922 and the “area with substrate ENLYFRS” value came out at 0.0542.
For the variant MGESLFKGPRDYNPISSSICHLTNESDGHTTSLYGIGFGPFIITNKHLFRRNNGTLVVQSLHGVFKVKDTTTLQQHLVDGRDMIIIRMPKDFPPFPQKLKFREPQREERICLVTTNFQTKSMSSMVSDKSCTFPSGDGIFWKHWIQTKDGQCGSPLVSTRDGFIVGIHSASNFTNTNNYFTSVPKNFMELLTNQEAQQWVSGWRLNADSVLWGGHKVFMVKPEEPFQPVKEATQL [T129K], the “area with substrate ENLYFAS” value is 0.0582, the “area with substrate ENLYFCS” value was 0.0641, the “area with substrate ENLYFDS” value came to 0.027 and the “area with substrate ENLYFFS” value was found to be 0.0831. Moreover, the “area with substrate ENLYFGS” value was determined as 0.0587, the “area with substrate ENLYFHS” value came to 0.059, the “area with substrate ENLYFIS” value came out at 0.0766 and the “area with substrate ENLYFMS” value came out at 0.0625. Also, the “area with substrate ENLYFSS” value turned out to be 0.062, the “area with substrate ENLYFTS” value was found to be 0.0596 and the “area with substrate ENLYFVS” value came to 0.0469.
In the case of MGESLFKGPRDYNPISSSICHLTNESDGGTTSLYGIGFGPFIITNKHLFRRNNGTLVVQSLHGVFKVKDTTTLQQHLVDGRDMIIIRMPKDFPPFPQKLKFREPQREERICLVTTNFQTKSMSSMVSDTSCTFPSGDGIFWKHWIQTKDGQCGSPLVSTRDGFIVGIHSASNFTNTNNYFTSVPKNFMELLTNQEAQQWVSGWRLNADSVLWGGHKVFMVKPEEPFQPVKEATQL [H29G], the “area with substrate ENLYFAS” value was determined as 0.0603, the “area with substrate ENLYFIS” value was found to be 0.0679, the “area with substrate ENLYFMS” value was determined as 0.0623 and the “area with substrate ENLYFPS” value was determined as 0.0596. In addition, the “area with substrate ENLYFTS” value is 0.0824 and the “area with substrate ENLYFYS” value amounted to 0.0598.
Take MGESLFKGPRDYNPISSSICHLTNESDGHTTSLYGIGFGPFIITNKHLFRRNNGTLVVQSLHGVFKVKDTTTLQQHLVDGRDMIIIRMPKDNPPFPQKLKFREPQREERICLVTTNFQTKSMSSMVSDTSCTFPSGDGIFWKHWIQTKDGQCGSPLVSTRDGFIVGIHSASNFTNTNNYFTSVPKNFMELLTNQEAQQWVSGWRLNADSVLWGGHKVFMVKPEEPFQPVKEATQL [F92N]: the “area with substrate ENLYFAS” value was determined as 0.0401, the “area with substrate ENLYFCS” value was determined as 0.0641, the “area with substrate ENLYFES” value was determined as 0.0465 and the “area with substrate ENLYFIS” value amounted to 0.0512. Further, the “area with substrate ENLYFKS” value worked out at 0.0445, the “area with substrate ENLYFMS” value was 0.0587, the “area with substrate ENLYFPS” value came to 0.0589 and the “area with substrate ENLYFRS” value stood at 0.0546. In addition, the “area with substrate ENLYFSS” value was 0.0619, the “area with substrate ENLYFTS” value was 0.0554 and the “area with substrate ENLYFWS” value was determined as 0.0499.
